The record followed here is paper PMC3878334.

Sequences of proteins named here, by UniProt entry; tags and fusion partners are left off.
UniProt Q9JLM9: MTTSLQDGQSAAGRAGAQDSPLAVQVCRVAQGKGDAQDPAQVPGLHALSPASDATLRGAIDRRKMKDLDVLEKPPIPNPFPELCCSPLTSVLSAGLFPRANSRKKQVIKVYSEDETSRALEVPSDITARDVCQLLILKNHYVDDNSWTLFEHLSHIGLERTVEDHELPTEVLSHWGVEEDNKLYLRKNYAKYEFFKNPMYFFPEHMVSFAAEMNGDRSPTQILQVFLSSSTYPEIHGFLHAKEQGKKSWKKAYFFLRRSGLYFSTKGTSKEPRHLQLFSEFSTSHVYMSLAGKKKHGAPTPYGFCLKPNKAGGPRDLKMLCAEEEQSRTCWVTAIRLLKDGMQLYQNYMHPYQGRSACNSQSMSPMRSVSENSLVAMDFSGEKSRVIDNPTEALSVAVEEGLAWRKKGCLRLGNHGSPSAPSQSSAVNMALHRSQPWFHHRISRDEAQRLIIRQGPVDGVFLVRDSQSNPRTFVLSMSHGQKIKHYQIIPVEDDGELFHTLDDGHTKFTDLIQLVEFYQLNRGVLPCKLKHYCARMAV

Assay [1] deals with GST-vSrc-SH2 fusion protein (UniProt P00524). Put plainly: pull-down; as a2, but retinal lysates of dark-adapted wild-type mice; only the target purified.
For assay [2] the target is unchanged. Put plainly: pull-down; GST-vSrc-SH2 on glutathione-Sepharose 4B incubated overnight at 4°C with retinal lysates of light-adapted wild-type mice (also Grb14-/-, Rpe65-/-, and control versus Ins2Akita mice); washed three times in PBS; blots with anti-PY99 and anti-Grb14; only the target purified.
Assay [3] has the same target. In words: pull-down; solubilized rod outer segment proteins of light-adapted rats (LROS) incubated with GST-vSrc-SH2 for 2 h; blots with anti-PY99 and anti-Grb14; only the target purified.
For assay [4] the target is unchanged. Put plainly: pull-down; GST-vSrc-SH2 on glutathione-Sepharose 4B incubated with retinal lysates of light-adapted rats (the legend says mice), not treated with phosphatase; blots with anti-PY99 and anti-Grb14; only the target purified.
Assay [5] shares this target. Put plainly: condition: only pull-downs treated with calf-intestinal phosphatase (CIP) for 30 min; pull-down; as a4, but the pull-downs were treated with calf-intestinal phosphatase (CIP) for 30 min and washed twice in wash buffer before the blot; only the target purified.

No constants are given. Whether binding was seen depends on the method and setting. Binding seen in cells or lysates may run through a third protein. Some results given as binding are weak or reduced against the parent protein; the word gives no strength.

Regarding “Grb14, endogenous in mouse retina (from UniProt Q9JLM9 1-538)”, the results for the binding entry in assay [1] and in assay [2] were “no binding (condition: dark-adapted retinas)” and “binds”, respectively.

In the case of “Grb14, endogenous in rat retina and rod outer segments (from UniProt O88900 1-538)”, the results for the binding result in assay [3], in assay [4] and in assay [5] were “binds”, “binds” and “no binding”, respectively.
